Measured values as given in the supplement of paper PMC10126150.
Values marked as one replicate rest on one cluster of the flow cell; about a third of the high ones do not repeat.

Test system: ATP
Assay: switch fluorescence ratio, 500 uM ATP over buffer (Cy3 cluster intensity, sum of 5 cycles each) (fold (ratio)); higher = stronger signal-on switching upon ATP binding; sequences stand for … in TCGTCGGCAGCGTCAGATGTGTATAAGAGACAGTTTTTTTTTTTTTTTTTTTTTTTTT…TC
Conditions: aptamer strand: ATP DNA aptamer (quencher-CACCTGGGGGAGTATTGCGGAGGAAGG + anchor), 100 nM annealed; ATP concentration: 500 uM; one replicate
In short: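 Values give the fluorescence ratio for each switch-domain sequence, averaged from per-cluster ratios of summed target-cycle to summed buffer-cycle Cy3 intensity. The Cy3-labelled switching-strand clusters sat on a modified Illumina MiSeq flow-cell, were annealed to 100 nM quencher-labelled ATP aptamer, and were imaged in selection buffer, then after 15 min with 500 uM ATP at 22 °C. Five cycles ran with NaOH stripping and re-annealing between them, and clusters outside 100-1000 RFU were excluded.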
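Note: ATP exposure 15 min at 22 °C before imaging.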

Sequence | switch fluorescence ratio
AAGACGTGCT | 0.964
GCTTGAGTCA | 0.985
GGAGGGACGT | 0.992
TTGTGAGATC | 0.98
GGTAATCGTA | 1.02
AAACTGGTAA | 1.04
GATGAATCC | 1.01
GATTGTGTAC | 1.05
AATCGGGCGA | 1.03
GATTCAACGG | 0.99
AAGTTTCCAG | 1.01
TAACAAAAGT | 1.08
TTGACCTCGA | 1.01
ATTATTTGCT | 0.928
AAGCCCTTA | 1.03
GTCAATTTTT | 0.996
GCGAGTCTGG | 0.979
CATAACCCCA | 1.09
GAAAATTAAC | 1.07
ATCCGCTCG | 1.16
GTTGACTCAG | 0.979
TTCATATAAG | 1
AGGGAGTGAC | 1.08

Sequence | switch fluorescence ratio
CCGCATCGTC | 2.86
GAGGGTTCCT | 0.978
AGGTTATCCA | 0.987
CAGTAACAG | 1.01
ATGAAGAGAC | 0.996
GAGTCGAACC | 1.41
TAGGATGATA | 1.01
GGTAATCATA | 0.974
ACGACCACCA | 1.6
TTTCAGCTTC | 1.02
TTGTGCGTCA | 1.03
GCGGTAAGTG | 1.01
CATAGGTCCA | 0.983
CGTTTTAGGC | 0.976
TATAGTTCTC | 0.969
CTGTGTACCA | 1
ATAATCATGG | 1.03
CGTTATGATC | 1.05
ATTGATGAAT | 0.962
AAAACCCGAG | 0.959
AGTGGCAGCA | 0.948
CGGGCCAAAC | 1.05
TTCTGGGCGA | 1.04

Sequence | switch fluorescence ratio
AAAGGGTTAA | 0.999
TTGATGGTGT | 1.02
TTCCATTACG | 1.07
ATAACGTCGT | 1.03
TTTCCGAGGC | 1.05
CCATGCACCT | 1.15
CAGAGATGGT | 1
GTCGGCGGTC | 0.945
ATGGGGCTAT | 1.02
AGCTATTCTA | 1.03
CAAAATGGCG | 1.01
GGTGTGTTGG | 1.01
AATCATCCGT | 1.02
ACAAAGCCCC | 1.08
TCTTAAATGG | 0.99
ATTCAGGCGA | 0.96
TACGTGTAGG | 1.04
TCACAAAGCT | 1.06
TCATAGCAAG | 1.6
AGAACTATTA | 0.992
GTACTATCGG | 1.01
GGGGGATAAC | 1.23
GGACGGTATA | 1.08

Sequence | switch fluorescence ratio
GATTCGGCTC | 0.994
GTCATTGTCG | 1.05
ACCGTCCGCT | 1.5
TACAGGACAC | 1.11
TATCGTTAAA | 0.981
GACACCTGGG | 1
TCGTAATGTC | 1.09
CTCGGT | 1
TTATGGTTT | 1.02
GGGCCCGTGG | 0.99
CGTTGTCACT | 0.997
GCGTGTCCAG | 0.983
CCAAGATGTA | 0.997
AGCACCAGGA | 1.28
GCTCCTTGTC | 1.07
CATCGTATTG | 0.97
TGGCCTTCGC | 1.13
GGCTGCCATC | 0.959
GACAACTCAG | 1.02
ATAAATTTCC | 1.14
ATAGGTGCTC | 1.01
GGTCCCGTCT | 1.04
ACCACTTACC | 1.26

Sequence | switch fluorescence ratio
TGTATATGAA | 1.01
ACTCGTCCAC | 1.08
GACGAGCACT | 1.82
GGATCCCGGG | 1
AGACAACATG | 0.985
AAAAATCATT | 1.01
AAGGGGTAGC | 1.05
ACGGTCGGGT | 1.04
CTGATTGTGA | 0.988
AAATGGGCAT | 1.02
TACCCATTTT | 1.02
TTATAGCGAC | 1.13
ATTATAAGCT | 1.01
GAAGTTCGAT | 1.06
TTGACGACC | 1.21
AATTAGGAAC | 0.976
CGAATATG | 1.13
ATAGTTTGTG | 0.978
CCGTGTACTT | 1.66
ACGTATAGTG | 1.05
TACGTAGGCG | 1
TCACGTCCGG | 1.04
CAAGAAGGAG | 0.981

Sequence | switch fluorescence ratio
GCCAAATGAC | 1.19
GGCCCATG | 1.01
TCCGCCAGTT | 3.71
TCCCGATCC | 1.19
ATCTACGCCT | 1.22
GCGCCAAGTG | 1.08
CATAGGATAG | 1.05
ATTGGACTTT | 1.02
TAACCTATTT | 1.01
CAGTATATAA | 0.996
CAGAGGTGAG | 1.06
TTATCAAATT | 0.998
CGTTTCGGCC | 0.992
CGCTTTCCAA | 1
GCACTCTATG | 1.01
ATGTAGTATA | 0.98
ACTAGACGTC | 1.06
CGGGTACTCT | 0.989
TGACACACAT | 1.35
AGCTTGAAGT | 1.03
GACCGAATCA | 0.989
ATGGTCATCG | 1.02
TTGATTCGGA | 0.963

Sequence | switch fluorescence ratio
TGCATGTGCA | 0.977
TAAACGGCT | 1.02
CATTGCATGC | 1.23
TTATCCTGAG | 1.15
TTCGACCTGC | 1.2
TCGATAGTCC | 1.04
AGAGTTTATG | 1.02
AGTATACTTG | 1.05
CAAACCTCAA | 1.09
ACTCTCGGGT | 1.05
GCCTTTTCCC | 1.06
TTACTCCTAG | 1.09
CAAGTTACTG | 1.12
CCCATCGTAT | 1.02
CACGAACGCT | 1.63
TTGACTTGGC | 0.955
CAGATGAACT | 0.984
ATAACAATGG | 1.05
GAGATGGGAG | 1.02
